PubChem BioAssay AID2094 (Broad Institute, 2009)
The campaign covered roughly 300,000 compounds. About 1,200 (0.4%) were called active. The shares of active, inactive and inconclusive entries below differ from those in the screen. Cut-off read from the data, not from the text of the source: active = activity change below about -75% (passing the limit was not always enough); inconclusive = no clear call, values can overlap the other calls.

Experiment: Vibrio harveyi AI-2 quorum sensing modulators, primary screen, JMH597 strain, luminescence/OD600 ratio (AID 2094);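 note: luminescence divided by OD600 gain over 9 h not by final OD600 alone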
Details: Vibrio harveyi JMH597 AI-2 luminescence/OD600 ratio, 9 h; at 7.5 µM; active compounds read low; 0 = neutral-control median; strain lacks LuxN and CqsS sensors

| SMILES | activity change |
| --- | --- |
| COc1ccc(NC(=O)CSc2nnc(Cc3ccc(C)cc3)c(=O)n2N)cc1 | inconclusive: -75.5% |
| CC1(c2ccccc2)NC(=O)N(NC(=O)COC(=O)c2cc(Br)ccc2O)C1=O (configuration not stated) | inconclusive: -75.8% |
| O=c1cnnc(N/N=C/c2ccccn2)[nH]1 | inconclusive: -58.7% |
| CC(C)=CC(=O)OCC(=O)Nc1ccc(Cl)cc1 | inconclusive: -74.9% |
| O=C(CO/N=C/c1ccc2c(c1)OCO2)Nc1cccc(Br)c1 | active: -88.8% |
| CNc1nc(N)c([N+](=O)[O-])c(Nc2cccc(F)c2)n1 | inactive: 20.9% |
| COC(=O)c1ccc(NC(=O)Cn2nnc3ccccc32)cc1 | inconclusive: -74.4% |
| O=C(CNc1ccccc1)N/N=C/c1ccc([N+](=O)[O-])o1 | inconclusive: -75.4% |
| Cc1ccc(OCc2cc(C(=O)NC(C)Cc3cnccn3)no2)cc1C (configuration not stated) | inconclusive: -74.9% |
| COC(=O)c1ccc(NC(=O)Nc2ccc([N+](=O)[O-])cc2)cc1 | inconclusive: -76.6% |
| CC(=O)c1ccc(N2CCN(c3ncccn3)CC2)cc1 | inactive: 35.1% |
| CC1(c2ccccc2)NC(=O)N(CC(=O)NCCC2=CCCCC2)C1=O (configuration not stated) | active: -90.2% |
| Cc1ccc(Sc2ncccc2C(=O)O)cc1 | active: -79.6% |
| O=C(NCCOc1ccccc1Cl)C(=O)c1c[nH]c2ccccc12 | inconclusive: -78.7% |
| Cc1ccc(C)n1-c1ccc2c(c1)COC2=O | inconclusive: -94.2% |
| Cc1onc(-c2ccccc2)c1C(=O)c1c[nH]c(C(=O)NCCCN2CCOCC2)c1 | inactive: 9.56% |
| Cc1ccc(SCc2nc(-c3ccccc3)no2)cc1 | inactive: -29.4% |
| O=C(NCc1cccc(Cl)c1)c1cc(COc2ccc3ncccc3c2)on1 | inconclusive: -42.5% |
| COc1ccc(Nc2nnc(Cc3ccc(Cl)cc3)c(=O)[nH]2)c(OC)c1 | inconclusive: -74.4% |
| O=C(COC(=O)CCc1nc2ccccc2n1-c1ccccc1)Nc1cccc(Cl)c1 | inactive: 9.58% |
| COc1cc(/C=N/NC(=O)c2cncc(Br)c2)cc([N+](=O)[O-])c1O | active: -202% |
| Clc1ccc(-c2cc(COc3ccccc3)on2)cc1 | inconclusive: -76% |
| CCOC(=O)CSc1nnc(COc2cccc(C)c2)o1 | inconclusive: -71.8% |

| SMILES | activity change |
| --- | --- |
| O=C(N/N=C/c1ccccn1)c1sc2ccccc2c1Cl | inconclusive: -59.2% |
| COc1cc(OC)cc(C(=O)NCCC(c2ccccc2)c2ccccc2)c1 | inactive: -0.765% |
| COc1ccc(/C=N/OCC(=O)Nc2nc3ccccc3s2)cc1 | inconclusive: -43.7% |
| CC(C)C1N=C(c2ccc3c(c2)OCO3)CC(c2ccccc2O)N1 (configuration not stated) | inactive: -9.22% |
| CCOC(=O)CNC(=O)CSc1nc(C)cc(C)c1C#N | inconclusive: -436% |
| O=C(Nc1ccc(Cl)cc1)C(Cl)C(=O)c1ccccc1 (configuration not stated) | inconclusive: -78.8% |
| CCOC(=O)NCCc1ccc(OC)cc1 | inconclusive: -78.9% |
| N#C/C(=C\c1cccnc1)C(=O)Nc1ccc(SC(F)F)cc1 | inconclusive: -69.5% |
| N#Cc1c(NC(=O)C2CC(c3ccccc3O)=NO2)sc2c1CCC2 (configuration not stated) | inactive: 16.5% |
| Cc1cc(C)c2oc(=O)cc(CN3CCOCC3)c2c1 | inconclusive: -808% |
| CN(C1=NS(=O)(=O)c2ccccc21)c1ccc(OC(=O)c2ccccc2)cc1 | inconclusive: -328% |
| CCN1CCN(C(=O)CN(CC)S(=O)(=O)c2ccc(F)cc2)CC1 | inactive: 13.9% |
| CCn1c(SCC(=O)c2ccc(O)c(O)c2)nnc1-c1ccccc1OC | inactive: 8.68% |
| COC(=O)c1ccc(NC(=O)CSc2nc3ncccc3[nH]2)cc1 | inconclusive: -76% |
| C/C(Cc1ccccc1)=N\NC(=O)CNC(=O)c1ccccc1O | inconclusive: -65.1% |
| COc1ccc(CC(=O)Nc2ccc(S(=O)(=O)NCC3CCCO3)cc2)cc1 (configuration not stated) | active: -92.7% |
| CO[C@H]1C=CO[C@@]2(C)Oc3c(C)c(O)c4c(O)c(c5c(nc6cc(C)ccn65)c4c3C2=O)NC(=O)C(C)=CC=C[C@H](C)[C@H](O)[C@@H](C)[C@@H](O)[C@@H](C)[C@H](OC(C)=O)[C@@H]1C | active: -219% |
| OC(COCc1cccs1)CN1CCN(c2ccccc2Cl)CC1 (configuration not stated) | inactive: 9.15% |
| C[N+](C)(C)CCCCCCCCCC[N+](C)(C)C | inactive: 30% |
| O=C(NC(=S)Nc1ccccc1Br)C1CC1 | active: -77.2% |
| Cc1cc(C(=O)N/N=C/c2ccc(O)c(O)c2O)c(C)n1-c1ccccc1 | inconclusive: -72.2% |
| NS(=O)(=O)c1ccc(Nc2c([N+](=O)[O-])cncc2[N+](=O)[O-])cc1 | active: -93.4% |
| Cc1ccc(C(=O)CCNc2ccc(Br)cc2)o1 | inconclusive: -76.1% |

| SMILES | activity change |
| --- | --- |
| CN(C)CCN(Cc1ccccc1)C(=O)C1CCN(c2ncnc3c2nc2n3CCCCC2)CC1 | inconclusive: -67.6% |
| O=C(NCCC1=CCCCC1)C(=O)c1c[nH]c2ccccc12 | inconclusive: -73.6% |
| CCN1/C(=C/c2ccc3cc(C)ccc3[n+]2CC)Sc2ccccc21 | inconclusive: -76.1% |
| O=C(NNC(=S)Nc1ccc(Cl)c(Cl)c1)c1ccccn1 | inconclusive: -52.3% |
| Cc1[nH]cnc1C(=O)N/N=C/c1ccc([N+](=O)[O-])s1 | inconclusive: -69.5% |
| CC(=O)c1ccccn1 | inactive: 0.722% |
| CCOC(=O)C(=Cc1ccc(F)cc1)C(=O)OCC | inactive: 7.3% |
| O=C(CSc1n[nH]c(-c2ccccn2)n1)Nc1cccc(Cl)c1 | inconclusive: -35.1% |
| CC(C)c1ccc(OCC(=O)NNC(=S)NC(=O)C2CC2)cc1 | inconclusive: -71.9% |
| O=C(COC(=O)c1ccc([N+](=O)[O-])s1)Nc1ccccc1 | inconclusive: 5.28% |
| O=C(COC(=O)c1cccnc1)Nc1cccc(Cl)c1 | inconclusive: -72.1% |
| O=[N+]([O-])c1ccc(/C=N/NC(=S)Nc2ccccc2)o1 | inconclusive: -73.2% |
| Cc1occc1C(=O)Nc1ccc2c(c1)OCCO2 | inconclusive: -72.9% |
| CCCCOc1ccc(CSC(CC(=O)O)C(=O)O)cc1 (configuration not stated) | inconclusive: -143% |
| COc1ccccc1CNC(=O)COc1ccc(S(=O)(=O)N2CCCC2)cc1 | inconclusive: -66.8% |
| O=C(NCc1ccc2c(c1)OCO2)c1cc(-c2ccccc2Cl)on1 | inconclusive: -70.2% |
| CN(c1ccccc1)S(=O)(=O)c1cccc(NC(=O)Cn2cnc3ccccc3c2=O)c1 | active: -92.8% |
| COc1ccc(Oc2ccc(-c3ccn[nH]3)cc2)cc1 | inconclusive: -72.8% |
| Cc1cc(-c2onc(C)c2C(=O)Oc2ccc(Cl)cc2)no1 | inactive: 12.6% |
| Cc1ccc2nsnc2c1NC(=O)c1ccc([N+](=O)[O-])o1 | inconclusive: -106% |
| Oc1ccccc1Oc1c(F)c(F)nc(N2CCCC2)c1F | active: -93.5% |
| Cc1cc(=O)oc2cc(NC(=O)CN3C(=O)NC(C)(c4ccccc4)C3=O)ccc12 (configuration not stated) | active: -83.9% |
| O=C(/C=C/c1ccco1)NC(=S)Nc1ccccc1 | active: -77.3% |

| SMILES | activity change |
| --- | --- |
| S=C(NCc1ccccc1)Nc1cccc(Cl)c1 | active: -78.2% |
| COc1cc([N+](=O)[O-])cc(/C=N\NC(=O)C2COc3ccccc3O2)c1O (configuration not stated) | inconclusive: -60.5% |
| CN(CC(=O)Nc1ccc(Cl)c(C(F)(F)F)c1)C(=O)C1CCC1 | inconclusive: -73.1% |
| O=C(CN1C(=O)c2cccc3cccc1c23)Nc1ccc(S(=O)(=O)N2CCOCC2)cc1 | active: -96.3% |
| CN(C)S(=O)(=O)c1ccc(C(=O)OCC2CCCO2)cc1 (configuration not stated) | active: -76.9% |
| O=c1oc(-c2ccccc2Cl)nc2ccsc12 | active: -82.8% |
| COC(=O)/C=C/S(=O)(=O)c1ccc(NC(C)=O)cc1 | inconclusive: -65.1% |
| O=C(/C=C/c1ccco1)NCc1ccc2c(c1)OCO2 | active: -77% |
| COc1cc(C2C(N3C(=O)c4ccccc4C3=O)C(=O)N2c2ccc(C)c(C)c2)cc(OC)c1OC (configuration not stated) | inconclusive: -63.9% |
| COc1ccccc1C(=O)NNC(=S)NC(=O)c1ccco1 | inconclusive: -54.6% |
| Cc1cccc2cc(C3CC(c4cccs4)=NN3C(=O)CCC(=O)O)c(Cl)nc12 (configuration not stated) | inactive: 5.45% |
| c1ccc(-c2nc(-c3ccncc3)no2)cc1 | inconclusive: -338% |
| O=C(O)c1ccc(NC(=S)NC(=O)c2ccc(-c3ccccc3)cc2)cc1 | inconclusive: -70.3% |
| Clc1ccc2oc(SCc3cccnc3)nc2c1 | active: -81.1% |
| CC(C)c1ccc(/C=N/NC(=O)C2CCCC2)cc1 | inconclusive: -72.6% |
| CCNC(=S)NNC(=O)c1cc(-c2ccc(OCC)cc2)nc2ccccc12 | inactive: 31.3% |
| CC(C)C[C@@H](CO)NC(=O)CC[C@H](NC(=O)OC(C)(C)C)C(=O)N(Cc1ccccc1)Cc1ccccc1 | inconclusive: -76.4% |
| CCOCCCNS(=O)(=O)c1ccc(NC(=O)CN2C(=O)c3ccccc3C2=O)cc1 | inconclusive: -75.4% |
| O=C(c1ccc([N+](=O)[O-])s1)N1CCN(c2ccc(C(F)(F)F)cn2)CC1 | inactive: 12.7% |
| Cc1[nH]c2c(Cl)cccc2c(=O)c1CN1CCCC1 | inactive: 12.7% |
| CC1=CN2C(=N)/C(=C/c3ccc([N+](=O)[O-])o3)C(=O)N=C2S1 | inconclusive: -60.6% |
| O=C(OCC(=O)c1c[nH]c2ccccc12)c1ccc([N+](=O)[O-])s1 | active: -98.9% |
| Clc1ccc(Nc2ncn[nH]2)cc1 | inconclusive: -88.6% |
